Results as given in PubChem BioAssay AID624296 (National Center for Advancing Translational Sciences (NCATS), 2012).
Values joined by “and” are separate entries in the source; they are usually repeats but may differ in a detail not shown here. Equal entries are not always repeated. Screen size: about 350,000 compounds; about 9,900 (2.8%) were called active. Inconclusive means that the source gave no clear call. Such entries were picked first, then a sample of the others. The call rests on the fitted dose curve; in most records, active means well fitted activation curve with a large enough effect; inconclusive means small, poorly fitted or top-dose-only effect; inactive means no such curve, though single readings can be large or run the other way. Potencies of inconclusive entries are doubtful fits and often do not repeat.

Experiment: A quantitative high throughput screen for small molecules that induce DNA re-replication in MCF 10a normal breast cells. Further: nearly all actives have a fitted effect of over 50% in size.
Conditions: MCF 10A DNA re-replication, Hoechst nuclear intensity, 48 h; series mostly up to 46.1 µM
Potency means the concentration at half of the fitted maximal effect; tags describe the fitted curve by direction and shape.

| SMILES | Potency |
| --- | --- |
| O=c1c2ccccc2nc(Cc2ccccc2)n1-c1ccccc1O | inactive |
| CCCCCCCCCCCCCCCC[N+](C)(C)C | inconclusive: 2.99 µM [activator, full curve] and inconclusive: 11.6 µM [activator, single point] |
| CC12CCC(=O)C=C1CCC1C2CCC2(C)C1CCC2(O)CC#N (configuration not stated) | inconclusive: 29.1 µM [activator, single point] |
| CC(C)Oc1cccc(C(=O)C2CCCN(Cc3ccon3)C2)c1 (configuration not stated) | inconclusive: 9.2 µM [activator, partial curve, poor fit] |
| CC1CCN2c3nc4ccccn4c(=O)c3CC3(C(=O)N(C)C(=O)N(C)C3=O)C2C1 (configuration not stated) | inactive |
| CN1C[C@H](CNC(=O)OCc2ccccc2)C[C@@H]2c3cccc4c3c(cn4C)C[C@H]21 | active: 23.1 µM |
| CCCCn1c(N)c(C(=O)NCCN2CCOCC2)c2nc3ccccc3nc21 | active: 20.6 µM |
| CCCc1c(C)nc(-c2ccc(C)cc2)nc1OC(=O)N(C)C | inconclusive: 29.1 µM [activator, single point] |
| O=C(C1CCCN(S(=O)(=O)c2cccc3nsnc23)C1)N1CCC2(CC1)OCCO2 (configuration not stated) | inactive |
| Cc1ccnc(-n2c(C)cc(/C=C3\C(=O)NC(=S)N(C)C3=O)c2C)c1 | inconclusive: 20.6 µM [activator, single point] |
| COc1ccc(OC)c(N=Cc2c(O)n(Cc3ccccc3)c(=S)[nH]c2=O)c1 | inconclusive: 29.1 µM [activator, single point] |
| Cc1ccc2[nH]c(=S)n(-c3cccnc3)c(=O)c2c1 | inconclusive: 0.231 µM [activator, full curve, poor fit] |
| COC(=O)C1=C(c2cc3ccccc3o2)C[C@@H]2CC[C@H]1N2C(=O)NCc1ccc(C(F)(F)F)cc1 | inactive |
| OCc1cnc[nH]1 | inconclusive: 6.51 µM [activator, single point] |
| CC(=O)[C@H]1CC[C@H]2C3CC[C@H]4C[C@H](O)CC[C@]4(C)C3CC[C@]12C (some centres not stated) | inconclusive: 33.5 µM [activator, partial curve, poor fit] |
| COc1cc(OC)c(OC)cc1/C=C(\C#N)C(=O)NCc1cccs1 | inconclusive: 29.1 µM [activator, single point] |
| COc1cc(-n2c(=S)[nH]c3ccc(C)cc3c2=O)c(Cl)cc1Cl | active: 13 µM |
| Cn1c(O)c(C=Nc2ccccc2-c2ccccc2)c(=O)n(C)c1=O | inactive |
| CC(C)COC(=O)n1c(=O)oc2cc(S(=O)(=O)N3CCCCC3)ccc21 | inconclusive: 29.1 µM [activator, single point] |
| CN(C)c1ccc2c(c1)N=C(c1ccco1)OP2(=S)N1CCOCC1 (configuration not stated) | inconclusive: 18.4 µM [activator, single point] |
| Cc1ncc(CN2CCCC(C(=O)c3ccc(C(C)(C)C)cc3)C2)s1 (configuration not stated) | inconclusive: 16.4 µM [activator, single point] |
| Cc1ccc(N2C(=O)NC(=O)/C(=C\c3cc(C)n(-c4sc5c(c4C#N)CCCC5)c3C)C2=O)cc1 | inconclusive: 29.1 µM [activator, single point] |
| CN1CC(C(=O)c2ccc(Cl)cc2)C(c2ccc(Cl)cc2Cl)C1 (configuration not stated) | inconclusive: 29.1 µM [activator, single point] |

| SMILES | Potency |
| --- | --- |
| CN1CCc2cc3c(cc2[C@H]1[C@@H]1OC(=O)c2c1ccc1c2OCO1)OCO3 | inconclusive: 2.31 µM [activator, full curve, poor fit] |
| COC(=O)C12OCC34C(CC5C(C)=C(O)C(=O)CC5(C)C3C(O)C1O)OC(=O)C(OC(=O)/C=C(\C)C(C)C)C24 (configuration not stated) | inactive |
| O=C1NC(=O)C(=Cc2ccc(Oc3ccc([N+](=O)[O-])cc3)cc2)C(=O)N1 | inactive |
| COC(=O)C(O)(c1ccc(NC(=S)NC(=O)c2ccc(Cl)cc2Cl)cc1)C(F)(F)F (configuration not stated) | inconclusive: 29.1 µM [activator, single point] |
| O=c1oc2ccccc2c(O)c1[C@H]1c2ccc(O)cc2Oc2c1c(=O)oc1ccccc21 | inconclusive: 6.51 µM [activator, single point] |
| Cc1ccc(/C=C2\C(=O)NC(=S)N(c3ccccc3F)C2=O)s1 | active: 5.8 µM |
| CC1=C(C)CC2(C(=O)NC(=S)NC2=O)C(C)C1 (configuration not stated) | inactive |
| C[CH2][Hg][S]c1ccccc1C(=O)O | active: 750 nM and active: 920 nM |
| COC(=O)c1cn(C(=O)c2cccc3ccccc23)c2ccccc12 | inconclusive: 8.2 µM [activator, partial curve, poor fit] |
| COc1ccc2c(c1OC)CN1CCc3cc4c(cc3C1C2)OCO4 (configuration not stated) | inactive |
| CC(C)OP(=O)(OC(C)C)C(NCc1ccccc1)c1ccccc1 (configuration not stated) | inactive |
| c1ccc(Nc2cccc3ccccc23)cc1 | inconclusive: 20.6 µM [activator, single point] |
| NCCc1ccc(OCc2ccccc2)c(OCc2ccccc2)c1 | inconclusive: 23.1 µM [activator, partial curve, poor fit] |
| CNC(C)C#Cc1ccc2oc3cc(C)c(C)cc3c(=O)c2c1 (configuration not stated) | inconclusive: 16.4 µM [activator, single point] |
| COC(=O)C1=C(N)OC(C)=C(C(C)=O)C12C(=O)N(C)c1ccccc12 (configuration not stated) | inactive |
| COc1ccc(Nc2nc3ccc(C)cc3cc2C#N)c(OC)c1 | inconclusive: 29.1 µM [activator, single point] |
| O=C(/C=C/c1ccccc1)NCCc1cnc[nH]1 | inconclusive: 20.6 µM [activator, partial curve, poor fit] |
| CCN1CCN(Cc2cc(Br)cc(Br)c2O)CC1 | inconclusive: 25.9 µM [activator, partial curve, poor fit] |
| COc1ccc(Cn2c(O)c(C=NCCCn3ccnc3)c(=O)[nH]c2=O)cc1 | inconclusive: 6.51 µM [activator, single point] |
| COc1ccc(C(=O)OC2C[C@H]3CC[C@@H](C2)N3O)cc1OC (some centres not stated) | inconclusive: 7.31 µM [activator, partial curve, poor fit] |
| O=C(c1ccc(-c2ccccc2)cc1)C1CCCN(Cc2ccn[nH]2)C1 (configuration not stated) | inactive |
| O=c1c2ccccc2nc(/C=C/c2ccc([N+](=O)[O-])o2)n1-c1ccc(O)cc1 | inconclusive: 3.26 µM [activator, partial curve, poor fit] |
| COc1ccccc1OCC#CCN1CCCCCC1 | inconclusive: 25.9 µM [activator, single point] |

| SMILES | Potency |
| --- | --- |
| COc1cc2c(cc1/C=C/[N+](=O)[O-])OCO2 | inconclusive: 20.6 µM [activator, single point] |
| CC(Cc1ccccc1Sc1ccccc1)N(C)C (configuration not stated) | inactive |
| Cc1ccc2[nH]c(C)c(CCNCc3ccco3)c2c1 | inconclusive: 29.1 µM [activator, single point] |
| COc1ccc(C2C(C#N)=C(N)Oc3n[nH]c(C)c32)cc1Cn1cc([N+](=O)[O-])cn1 (configuration not stated) | inconclusive: 23.1 µM [activator, single point] |
| COc1cc2c(c(OC)c1OC)-c1ccc(OC)c(=O)cc1[C@@H](NC(C)=O)CC2 | active: 0.0422 µM |
| COc1ccccc1OP(=O)(Nc1ccc(Br)cc1)Oc1ccccc1OC | inactive |
| CCN(C[C@H]1N[C@@](CC)(C(=O)OC)[C@H]2C(=O)N(Cc3ccccc3)C(=O)[C@@H]12)C(=O)Nc1ccc(OC)cc1 | inconclusive: 16.4 µM [activator, partial curve, poor fit] |
| CCC1(CCCC(=O)c2ccc(F)cc2)C(=O)NC(=S)NC1=O | inconclusive: 2.91 µM [activator, single point] |
| COc1ccccc1N1C(=O)NC(=O)/C(=C/c2ccc([N+](=O)[O-])s2)C1=O | inconclusive: 29.1 µM [activator, single point] |
| COc1ccccc1CN1CCN(C(=O)COc2cccc(C)c2)CC1 | inconclusive: 0.651 µM [activator, full curve, poor fit] |
| CCCNC(=O)c1c(N)n(Cc2ccco2)c2nc3ccccc3nc12 | active: 2.06 µM |
| COc1cc(C(=O)NN=Cc2ccc(N(CCCl)CCCl)cc2)cc(OC)c1OC | active: 16.4 µM |
| CC(C)[C@@]1(NC(=O)[C@@H]2C=C3c4cccc5[nH]cc(c45)C[C@H]3N(C)C2)O[C@@]2(O)[C@@H]3CCCN3C(=O)[C@H](Cc3ccccc3)N2C1=O | inactive |
| Cc1[nH]n(-c2ccccc2)c(=O)c1C(c1cccc([N+](=O)[O-])c1O)c1c(C)[nH]n(-c2ccccc2)c1=O | inconclusive: 32.6 µM [activator, partial curve, poor fit] |
| CCOc1ccccc1OCC(=O)Nc1ccc(Cl)cc1C(=O)c1ccccc1 | inconclusive: 32.6 µM [activator, partial curve, poor fit] |
| O=c1oc2cccnc2n1CCS(=O)(=O)c1ccc(F)cc1 | active: 20.6 µM |
| CC1=C2CCC3C(CCC4=CC(=O)CCC43C)C2CC1 (configuration not stated) | inconclusive: 23.1 µM [activator, single point] |
| O=P(Oc1ccc(-c2ccccc2)cc1)(N1CC1)N1CC1 | inactive |
| O=C(c1ccco1)c1cn(Cc2ccccc2)c2ccccc12 | inconclusive: 29.1 µM [activator, single point] |
| Cc1ccc2c(c1)CC1(CN2C)C(=O)NC(=O)N(c2cccc(C)c2C)C1=O (configuration not stated) | inconclusive: 29.1 µM [activator, single point] |
| CC1=C(C(=O)Nc2ccccc2)S(=O)(=O)CCO1 | inconclusive: 18.4 µM [activator, single point] |
